According to the supplement of paper PMC12217912:
The list shows a part of the results. The full chains were built here from the parent and the listed change. Inactive controls read about 0.05.

B1: TEV protease; the commonest letter at each place (parent)
chain: MGESLFKGPRDYNPISSSICHLTNESDGHTTSLYGIGFGPFIITNKHLFRRNNGTLVVQSLHGVFKVKDTTTLQQHLVDGRDMIIIRMPKDFPPFPQKLKFREPQREERICLVTTNFQTKSMSSMVSDTSCTFPSGDGIFWKHWIQTKDGQCGSPLVSTRDGFIVGIHSASNFTNTNNYFTSVPKNFMELLTNQEAQQWVSGWRLNADSVLWGGHKVFMVKPEEPFQPVKEATQL

Variants of: B1
Assay: raw area under fraction-flipped curve 0-4 h after induction (AUC4h, not background-subtracted), DNA-recorder readout of cleavage of the substrate (dimensionless); higher = more cleavage of the substrate by the protease variant
Conditions: temperature: 34 °C; time window: 0-4 h after rhamnose induction
Experimental: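 In vivo DNA recorder in E. coli TOP10(DE3) ΔrhaA at 34 °C. Each TEVp single-site mutant (parent TEVp 0) is paired with a single-site variant of the 7-mer TEVs (canonical ENLYFQ|S). The substrate sits between flexible linkers in a Bxb1-sfGFP-TEVs-SsrA fusion, so cleavage stabilises Bxb1 and speeds flipping of a recombination array, read by NGS. The value is the raw area under the fraction-flipped curve over 0-4 h after rhamnose induction (AUC4h), with ≥20 reads per time point. It is not background-subtracted; inactive controls average about 0.047.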
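Further: Bxb1 expression induced with 0.2% (w/v) L-rhamnose at OD600 near 0.5, cultures sampled hourly, flipped fraction per protease–substrate barcode pair counted by paired-end Illumina sequencing.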

Row | Variant | area with substrate ENLYFAS | area with substrate ENLYFCS | area with substrate ENLYFDS | area with substrate ENLYFES | area with substrate ENLYFFS | area with substrate ENLYFGS | area with substrate ENLYFHS | area with substrate ENLYFIS | area with substrate ENLYFKS | area with substrate ENLYFLS | area with substrate ENLYFMS | area with substrate ENLYFNS | area with substrate ENLYFPS | area with substrate ENLYFRS | area with substrate ENLYFSS | area with substrate ENLYFTS | area with substrate ENLYFVS | area with substrate ENLYFWS | area with substrate ENLYFYS
1 | unchanged | 0.0596 | 0.0593 | 0.0591 | 0.0657 | 0.0683 | 0.0593 | 0.0605 | 0.0572 | 0.0614 | 0.0602 | 0.0671 | 0.0643 | 0.059 | 0.0595 | 0.0592 | 0.0596 | 0.0549 | 0.0577 | 0.0579
2 | G8F | – | 0.0665 | – | – | 0.0602 | – | – | – | – | – | 0.0691 | – | 0.0584 | – | – | – | 0.0855 | – | 0.0709
3 | G8P | – | 0.0736 | 0.03 | – | 0.053 | 0.0694 | 0.0582 | 0.0489 | – | – | 0.0658 | – | – | 0.0708 | – | 0.0591 | – | – | –
4 | G8S | – | 0.0502 | – | – | – | 0.0592 | – | 0.0481 | 0.0698 | – | 0.0669 | – | 0.0574 | – | – | – | 0.0668 | – | –
5 | N13V | – | 0.051 | 0.0457 | 0.063 | 0.0685 | 0.0529 | 0.0627 | 0.0603 | 0.0659 | 0.0447 | 0.0646 | 0.0648 | 0.063 | 0.0594 | 0.0561 | 0.0488 | – | 0.0812 | 0.0612
6 | S16D | – | 0.0566 | 0.0468 | 0.0623 | 0.0705 | – | 0.0658 | 0.0569 | 0.0316 | 0.0596 | 0.0642 | 0.055 | 0.0616 | 0.0315 | 0.0537 | 0.066 | – | 0.0563 | –
7 | S16E | – | 0.0455 | 0.037 | 0.0677 | 0.07 | 0.0607 | 0.0674 | 0.0562 | 0.0579 | 0.0642 | 0.068 | 0.0606 | 0.0599 | 0.0534 | 0.0927 | 0.0702 | 0.0523 | 0.0604 | –
8 | N24Y | – | 0.0561 | – | 0.0704 | – | – | – | 0.0635 | 0.0622 | 0.0557 | 0.0767 | 0.0515 | 0.052 | 0.058 | 0.0672 | – | – | 0.058 | 0.0552
9 | T30C | – | 0.0619 | 0.0549 | 0.0661 | 0.0616 | 0.0598 | – | 0.0495 | – | 0.055 | 0.0665 | 0.0528 | 0.0567 | 0.0587 | – | – | 0.0535 | 0.0494 | 0.0579
10 | S32I | – | 0.0543 | – | 0.0625 | 0.0531 | 0.0729 | – | 0.0602 | 0.0705 | 0.0594 | 0.071 | 0.0711 | 0.0628 | – | – | 0.0662 | – | 0.0681 | –
11 | S32P | – | 0.0561 | 0.0315 | 0.0632 | 0.046 | 0.0482 | 0.0509 | 0.0564 | 0.0653 | 0.0577 | 0.0557 | 0.035 | 0.0538 | 0.0711 | 0.0502 | 0.0587 | 0.0535 | – | 0.0536
12 | S32Y | – | 0.0632 | 0.0444 | – | 0.0529 | 0.06 | 0.0722 | 0.0473 | 0.0639 | – | 0.0678 | 0.0584 | 0.056 | 0.0558 | 0.0741 | 0.0632 | 0.0534 | 0.063 | –
13 | P40H | – | 0.0618 | 0.0611 | 0.0674 | 0.0514 | 0.0586 | 0.0663 | 0.0492 | 0.0655 | – | 0.0694 | – | 0.0609 | 0.0762 | – | 0.0597 | 0.0469 | 0.0531 | 0.0658
14 | P40R | – | 0.0694 | – | 0.071 | 0.0666 | 0.061 | – | 0.0518 | 0.0598 | – | 0.0811 | 0.0589 | – | 0.0697 | 0.0581 | 0.0587 | – | – | 0.0548
15 | K46S | – | 0.0747 | 0.0493 | 0.0653 | 0.0699 | 0.0571 | 0.0592 | 0.0573 | 0.058 | – | 0.0588 | – | 0.0616 | 0.0605 | 0.054 | 0.0592 | 0.0683 | 0.0618 | –
16 | L48M | – | 0.0589 | – | 0.0652 | 0.0689 | 0.0562 | – | 0.0428 | 0.0537 | 0.0606 | 0.0679 | – | 0.0493 | 0.0608 | 0.0569 | 0.0553 | – | 0.0557 | 0.0623
17 | L56M | – | 0.0545 | – | – | 0.0654 | 0.0579 | 0.0645 | 0.0538 | 0.043 | – | 0.0641 | 0.0671 | 0.0606 | 0.0574 | 0.0628 | 0.0658 | – | – | 0.0644
18 | V64T | – | 0.0592 | – | – | 0.0586 | – | 0.0539 | 0.0344 | – | – | 0.0603 | – | – | – | 0.0522 | 0.0527 | 0.0708 | 0.0471 | 0.0577
19 | V64W | – | 0.0499 | – | 0.078 | – | – | 0.0628 | 0.0547 | 0.0603 | 0.0325 | – | – | 0.0574 | 0.0595 | – | – | – | 0.0568 | 0.0634
20 | T72G | – | 0.0539 | 0.0605 | 0.0666 | 0.0665 | 0.0616 | – | 0.0523 | 0.0558 | – | 0.0733 | – | 0.0611 | 0.0601 | – | – | 0.0541 | 0.0634 | 0.0567
21 | G80K | – | 0.0586 | 0.0643 | 0.0663 | 0.0636 | – | 0.03 | 0.0659 | 0.0569 | – | 0.06 | – | 0.0507 | 0.0539 | – | 0.0612 | 0.0625 | 0.0422 | –
22 | M88Q | – | 0.0603 | 0.0562 | 0.0517 | – | 0.0684 | – | 0.0544 | – | – | – | 0.072 | 0.0608 | 0.0753 | 0.0569 | 0.0643 | 0.0414 | – | –
23 | P93S | – | 0.0604 | – | 0.0657 | – | – | 0.0568 | 0.0451 | – | – | 0.0817 | 0.0636 | – | – | – | 0.0557 | – | 0.0637 | –
24 | P96M | – | 0.0773 | 0.0721 | 0.0671 | 0.0636 | – | 0.0383 | 0.0503 | 0.0742 | – | 0.0606 | 0.055 | – | – | – | 0.039 | 0.0703 | – | –
25 | P96N | – | 0.052 | 0.0632 | 0.0547 | 0.0046 | 0.0674 | 0.0594 | 0.0598 | 0.0595 | 0.0645 | 0.0669 | 0.0752 | 0.0619 | 0.0559 | – | 0.0685 | 0.0436 | – | 0.0559
26 | P96S | – | 0.0243 | – | 0.0784 | 0.0673 | – | – | 0.0488 | 0.0894 | 0.067 | 0.0748 | – | – | – | 0.0572 | 0.0552 | – | – | 0.0658
27 | E103G | – | 0.0548 | – | 0.0456 | 0.0722 | 0.0598 | 0.0727 | 0.0659 | 0.0583 | 0.0607 | 0.0645 | 0.11 | 0.0588 | 0.0645 | 0.0591 | 0.0524 | 0.0568 | 0.0602 | 0.0537
